Experimental findings from a collection of fitness landscapes (doi:10.1126/science.1257360) are described below.

Some of the results follow.

The labels stand for the following.
B1: PhoQ; a variant is named by its letters at X, in order, P23837 (parent)
chain: MKKLLRLFFPLSLRVRFLLATAAVVLVLSLAYGMVALIGYSVSFDKTTFRLLRGESNLFYTLAKWENNKLHVELPENIDKQSPTMTLIYDENGQLLWAQRDVPWLMKMIQPDWLKSNGFHEIEADVNDTSLLLSGDHSIQQQLQEVREDDDDAEMTHSVAVNVYPATSRMPKLTIVVVDTIPVELKSSYMVWSWFIYVLSANLLLVIPLLWVAAWWSLRPIEALAKEVRELEEHNRELLNPATTRELTSLVRNLNRLLKSERERYDKYRTTLTDLTHSLKTPLXXLQXXLRSLRSEKMSVSDAEPVMLEQISRISQQIGYYLHRASMRGGTLLSRELHPVAPLLDNLTSALNKVYQRKGVNISLDISPEISFVGEQNDFVEVMGNVLDNACKYCLEFVEISARQTDEHLYIVVEDDGPGIPLSKREVIFDRGQRVDTLRPGQGVGLAVAREITEQYEGKIVAGESMLGGARMEVIFGRQHSAPKDE

In the experiment the parent is B1. Briefly: enrichment ratio after two sorts for PhoP signalling (ratio (wild type AVST 3.29)); higher = more functional. The settings on record: with PhoP (E. coli).
Regarding HHDY, the enrichment ratio is ≤ 0.25.

IIHP: the enrichment ratio is ≤ 0.25.

TRRR: the enrichment ratio was ≤ 0.25.

Consider ARCQ, for which the enrichment ratio turned out to be 10.3.

Take ENGR: the enrichment ratio was ≤ 0.25.

As to VKTD, the enrichment ratio is ≤ 0.25.

As to YCYA, the enrichment ratio was ≤ 0.25.

On to QYDS, for which the enrichment ratio was ≤ 0.25.

Turning to MSCV, the enrichment ratio is 15.3.

For the variant MDAM, the enrichment ratio is ≤ 0.25.

As to LWDP, the enrichment ratio is ≤ 0.25.

Take FGSK: the enrichment ratio was ≤ 0.25.

With VIRR, the enrichment ratio is ≤ 0.25.

Turning to TVQM, the enrichment ratio worked out at 5.48.

Take HFTR: the enrichment ratio is ≤ 0.25.

As for TGID, the enrichment ratio is ≤ 0.25.

DQLD: the enrichment ratio is ≤ 0.25.

On to AALC, for which the enrichment ratio is 13.9.

For the variant IWAC, the enrichment ratio is ≤ 0.25.

Turning to WEGR, the enrichment ratio was ≤ 0.25.

On to KAAK, for which the enrichment ratio was ≤ 0.25.

Consider EMQL, for which the enrichment ratio was ≤ 0.25.

On to ITVM, for which the enrichment ratio was ≤ 0.25.

Consider RSML, for which the enrichment ratio was ≤ 0.25.

Take EFWL: the enrichment ratio is ≤ 0.25.

WTLA: the enrichment ratio was ≤ 0.25.

In the case of RQYY, the enrichment ratio was ≤ 0.25.

Consider NHCS, for which the enrichment ratio was ≤ 0.25.

In the case of SIIT, the enrichment ratio is ≤ 0.25.

For the variant RSCS, the enrichment ratio is ≤ 0.25.

As to EETR, the enrichment ratio was ≤ 0.25.

As to DAGQ, the enrichment ratio is ≤ 0.25.

With IQRL, the enrichment ratio amounted to 0.347.

Take SRDS: the enrichment ratio was ≤ 0.25.

As for HTSV, the enrichment ratio is ≤ 0.25.

Regarding REDD, the enrichment ratio was ≤ 0.25.

Consider LTYR, for which the enrichment ratio is ≤ 0.25.

As for VSNE, the enrichment ratio was ≤ 0.25.

Regarding TSFH, the enrichment ratio was 1.38.

WYLS: the enrichment ratio is ≤ 0.25.

On to WEKT, for which the enrichment ratio was ≤ 0.25.

Regarding SVCD, the enrichment ratio was 8.16.

In the case of NSNR, the enrichment ratio was ≤ 0.25.

Regarding TYQY, the enrichment ratio is ≤ 0.25.

IWVL: the enrichment ratio was ≤ 0.25.

On to YFSV, for which the enrichment ratio is ≤ 0.25.

As to HNYH, the enrichment ratio is ≤ 0.25.

As to EDWP, the enrichment ratio is ≤ 0.25.

VRDM: the enrichment ratio was ≤ 0.25.

Consider IPHH, for which the enrichment ratio was ≤ 0.25.

On to IWWK, for which the enrichment ratio was ≤ 0.25.

FYPC: the enrichment ratio was ≤ 0.25.

Consider FGGP, for which the enrichment ratio is 0.335.

Regarding IEDC, the enrichment ratio was ≤ 0.25.

Consider NSCG, for which the enrichment ratio is ≤ 0.25.

Turning to HHAM, the enrichment ratio is ≤ 0.25.

Take WLLW: the enrichment ratio was ≤ 0.25.

Consider MQYW, for which the enrichment ratio is ≤ 0.25.

RQDH: the enrichment ratio is ≤ 0.25.

With NFWL, the enrichment ratio was ≤ 0.25.

On to MLPR, for which the enrichment ratio was ≤ 0.25.

Turning to HQYW, the enrichment ratio was ≤ 0.25.

For VNDD, the enrichment ratio is ≤ 0.25.

In the case of QWST, the enrichment ratio is ≤ 0.25.

As for GVLN, the enrichment ratio stood at 10.1.

On to QGEK, for which the enrichment ratio was ≤ 0.25.

Turning to PNDC, the enrichment ratio is ≤ 0.25.

As for FPPY, the enrichment ratio was ≤ 0.25.

With WKYL, the enrichment ratio is ≤ 0.25.

In the case of DTFY, the enrichment ratio is ≤ 0.25.

Take NSRS: the enrichment ratio was ≤ 0.25.

With QRLP, the enrichment ratio was ≤ 0.25.

For the variant LHQG, the enrichment ratio is ≤ 0.25.

For SARI, the enrichment ratio is ≤ 0.25.

For IQWH, the enrichment ratio is ≤ 0.25.

On to FRIR, for which the enrichment ratio was ≤ 0.25.

For FYWT, the enrichment ratio is ≤ 0.25.

On to IGCS, for which the enrichment ratio is ≤ 0.25.

DNSQ: the enrichment ratio is ≤ 0.25.

Regarding TPWD, the enrichment ratio was ≤ 0.25.

Regarding PEPA, the enrichment ratio was ≤ 0.25.

Consider NTDT, for which the enrichment ratio is ≤ 0.25.

Consider HRHY, for which the enrichment ratio is ≤ 0.25.

In the case of TPIH, the enrichment ratio was ≤ 0.25.

As to KLIC, the enrichment ratio is ≤ 0.25.

NEHT: the enrichment ratio was ≤ 0.25.

On to NCHR, for which the enrichment ratio is ≤ 0.25.

Turning to LRFN, the enrichment ratio is ≤ 0.25.

Turning to QQRP, the enrichment ratio was ≤ 0.25.

Regarding HSGL, the enrichment ratio is ≤ 0.25.

On to DAWH, for which the enrichment ratio is ≤ 0.25.

Consider MQWM, for which the enrichment ratio turned out to be 14.1.

As for VLGH, the enrichment ratio is ≤ 0.25.

For PEMV, the enrichment ratio is ≤ 0.25.

Turning to GCNF, the enrichment ratio is ≤ 0.25.

Consider FSSL, for which the enrichment ratio is ≤ 0.25.

Consider PYEP, for which the enrichment ratio was ≤ 0.25.

With PPYP, the enrichment ratio was determined as 0.943.

For QECI, the enrichment ratio worked out at 5.02.

For the variant YASC, the enrichment ratio was ≤ 0.25.

On to KSTN, for which the enrichment ratio is ≤ 0.25.

Regarding DRHH, the enrichment ratio was ≤ 0.25.

Turning to LGNR, the enrichment ratio was ≤ 0.25.

For ILEG, the enrichment ratio is ≤ 0.25.

Turning to KSIC, the enrichment ratio was ≤ 0.25.

On to NMAG, for which the enrichment ratio is ≤ 0.25.

Regarding FQAF, the enrichment ratio is ≤ 0.25.

For SRVR, the enrichment ratio worked out at 0.281.

For NKMS, the enrichment ratio was ≤ 0.25.

Regarding MMGT, the enrichment ratio is ≤ 0.25.

Regarding WMDP, the enrichment ratio was ≤ 0.25.

Turning to NISA, the enrichment ratio is ≤ 0.25.

As for GVTA, the enrichment ratio was ≤ 0.25.

Turning to TTRG, the enrichment ratio was ≤ 0.25.

GAPI: the enrichment ratio is ≤ 0.25.

On to LPIQ, for which the enrichment ratio is ≤ 0.25.

Take GWRD: the enrichment ratio is ≤ 0.25.

For FSLR, the enrichment ratio was ≤ 0.25.

As for VWSA, the enrichment ratio was ≤ 0.25.

Take SWRY: the enrichment ratio was ≤ 0.25.

As to KCCI, the enrichment ratio is ≤ 0.25.

As for HGMC, the enrichment ratio was found to be 13.3.

Take SKAN: the enrichment ratio was ≤ 0.25.

On to MIQS, for which the enrichment ratio was ≤ 0.25.

Take PDQR: the enrichment ratio was ≤ 0.25.

In the case of KHSL, the enrichment ratio was ≤ 0.25.

As for RSKM, the enrichment ratio was ≤ 0.25.

For the variant LESW, the enrichment ratio is ≤ 0.25.

Regarding NWQF, the enrichment ratio was ≤ 0.25.

In the case of GTQD, the enrichment ratio was ≤ 0.25.

With LKLK, the enrichment ratio is ≤ 0.25.

Regarding FRTS, the enrichment ratio was ≤ 0.25.

Take NDMM: the enrichment ratio was ≤ 0.25.

With WLYC, the enrichment ratio was ≤ 0.25.

For the variant ELML, the enrichment ratio is ≤ 0.25.

LTTP: the enrichment ratio is ≤ 0.25.

In the case of MFFH, the enrichment ratio was ≤ 0.25.

As for YCLF, the enrichment ratio was 0.497.

For EKCV, the enrichment ratio was ≤ 0.25.

On to YWIV, for which the enrichment ratio is ≤ 0.25.

With TTAY, the enrichment ratio worked out at 1.38.

For ARAK, the enrichment ratio was ≤ 0.25.

Regarding GSDK, the enrichment ratio is ≤ 0.25.

For the variant RLER, the enrichment ratio was ≤ 0.25.

For INVY, the enrichment ratio was ≤ 0.25.

With AWCH, the enrichment ratio was ≤ 0.25.

As to LHTM, the enrichment ratio was ≤ 0.25.

On to WLDR, for which the enrichment ratio was ≤ 0.25.

For GYFA, the enrichment ratio was ≤ 0.25.

Regarding EMGI, the enrichment ratio is ≤ 0.25.

Take NMIW: the enrichment ratio was ≤ 0.25.

In the case of WYNG, the enrichment ratio is ≤ 0.25.

For HYWD, the enrichment ratio was ≤ 0.25.

Take RTCK: the enrichment ratio was ≤ 0.25.

Take LQKL: the enrichment ratio is ≤ 0.25.

For the variant MNEK, the enrichment ratio is ≤ 0.25.

DPHA: the enrichment ratio was ≤ 0.25.

With SGTF, the enrichment ratio was determined as 2.63.

Regarding HHLY, the enrichment ratio is ≤ 0.25.

For the variant DLFF, the enrichment ratio was ≤ 0.25.

Regarding IDDD, the enrichment ratio is ≤ 0.25.

Take KISV: the enrichment ratio was ≤ 0.25.

Take TGWM: the enrichment ratio worked out at 0.965.

Regarding TMAS, the enrichment ratio is 15.

As to WGDK, the enrichment ratio was ≤ 0.25.

With LYGA, the enrichment ratio is ≤ 0.25.

Take QDCI: the enrichment ratio is ≤ 0.25.

For the variant FWRL, the enrichment ratio was ≤ 0.25.

With QHFW, the enrichment ratio was ≤ 0.25.

With LHVR, the enrichment ratio is ≤ 0.25.

As to GKCI, the enrichment ratio is ≤ 0.25.

As to HQIF, the enrichment ratio was ≤ 0.25.

For the variant DECA, the enrichment ratio is ≤ 0.25.

NWDD: the enrichment ratio is ≤ 0.25.

For NAQF, the enrichment ratio was ≤ 0.25.

For the variant FWKM, the enrichment ratio is ≤ 0.25.

As for YRNQ, the enrichment ratio is ≤ 0.25.

RSHS: the enrichment ratio is ≤ 0.25.

As to PYLY, the enrichment ratio is ≤ 0.25.

Consider AQSP, for which the enrichment ratio is ≤ 0.25.

Consider ESVN, for which the enrichment ratio was ≤ 0.25.

As for GEKC, the enrichment ratio is ≤ 0.25.

In the case of FYMQ, the enrichment ratio is ≤ 0.25.

In the case of IIIQ, the enrichment ratio was ≤ 0.25.

On to MEEF, for which the enrichment ratio is ≤ 0.25.

Consider GNDN, for which the enrichment ratio came out at 0.537.

Consider DFKW, for which the enrichment ratio was ≤ 0.25.

On to KDNA, for which the enrichment ratio is ≤ 0.25.

With QPAN, the enrichment ratio is ≤ 0.25.

Regarding TVWH, the enrichment ratio stood at 2.12.

For the variant MQDF, the enrichment ratio was ≤ 0.25.

In the case of IMLG, the enrichment ratio was ≤ 0.25.

Consider IWAD, for which the enrichment ratio is ≤ 0.25.

In the case of FVGC, the enrichment ratio is ≤ 0.25.

Take HDHW: the enrichment ratio was ≤ 0.25.
